Measurements from patent US20130072473A1, “COMPOUNDS FOR TREATING PROTEIN FOLDING DISORDERS” (PROTEOSTASIS THERAPEUTICS, INC., priority 2011, published 2013).
Some entries share one result that the patent states for a list of compounds.

Molecular target: T1, ΔF508-CFTR (Homo sapiens, UniProt P13569, DEL508-508)
T1 construct: expressed in transfected cells; host or cells: CFBE41o- cells
Test: CFTR iodide flux assay (YFP quenching)
Type: cell-based
Conditions: 10 μM compound; CFBE41o− cells stably expressing ΔF508-CFTR and halide-sensitive YFP; stimulated 20 min with forskolin and test compounds; indirect measure of CFTR function

T1 sequence (P13569 with tags, fused parts or gaps DEL508-508): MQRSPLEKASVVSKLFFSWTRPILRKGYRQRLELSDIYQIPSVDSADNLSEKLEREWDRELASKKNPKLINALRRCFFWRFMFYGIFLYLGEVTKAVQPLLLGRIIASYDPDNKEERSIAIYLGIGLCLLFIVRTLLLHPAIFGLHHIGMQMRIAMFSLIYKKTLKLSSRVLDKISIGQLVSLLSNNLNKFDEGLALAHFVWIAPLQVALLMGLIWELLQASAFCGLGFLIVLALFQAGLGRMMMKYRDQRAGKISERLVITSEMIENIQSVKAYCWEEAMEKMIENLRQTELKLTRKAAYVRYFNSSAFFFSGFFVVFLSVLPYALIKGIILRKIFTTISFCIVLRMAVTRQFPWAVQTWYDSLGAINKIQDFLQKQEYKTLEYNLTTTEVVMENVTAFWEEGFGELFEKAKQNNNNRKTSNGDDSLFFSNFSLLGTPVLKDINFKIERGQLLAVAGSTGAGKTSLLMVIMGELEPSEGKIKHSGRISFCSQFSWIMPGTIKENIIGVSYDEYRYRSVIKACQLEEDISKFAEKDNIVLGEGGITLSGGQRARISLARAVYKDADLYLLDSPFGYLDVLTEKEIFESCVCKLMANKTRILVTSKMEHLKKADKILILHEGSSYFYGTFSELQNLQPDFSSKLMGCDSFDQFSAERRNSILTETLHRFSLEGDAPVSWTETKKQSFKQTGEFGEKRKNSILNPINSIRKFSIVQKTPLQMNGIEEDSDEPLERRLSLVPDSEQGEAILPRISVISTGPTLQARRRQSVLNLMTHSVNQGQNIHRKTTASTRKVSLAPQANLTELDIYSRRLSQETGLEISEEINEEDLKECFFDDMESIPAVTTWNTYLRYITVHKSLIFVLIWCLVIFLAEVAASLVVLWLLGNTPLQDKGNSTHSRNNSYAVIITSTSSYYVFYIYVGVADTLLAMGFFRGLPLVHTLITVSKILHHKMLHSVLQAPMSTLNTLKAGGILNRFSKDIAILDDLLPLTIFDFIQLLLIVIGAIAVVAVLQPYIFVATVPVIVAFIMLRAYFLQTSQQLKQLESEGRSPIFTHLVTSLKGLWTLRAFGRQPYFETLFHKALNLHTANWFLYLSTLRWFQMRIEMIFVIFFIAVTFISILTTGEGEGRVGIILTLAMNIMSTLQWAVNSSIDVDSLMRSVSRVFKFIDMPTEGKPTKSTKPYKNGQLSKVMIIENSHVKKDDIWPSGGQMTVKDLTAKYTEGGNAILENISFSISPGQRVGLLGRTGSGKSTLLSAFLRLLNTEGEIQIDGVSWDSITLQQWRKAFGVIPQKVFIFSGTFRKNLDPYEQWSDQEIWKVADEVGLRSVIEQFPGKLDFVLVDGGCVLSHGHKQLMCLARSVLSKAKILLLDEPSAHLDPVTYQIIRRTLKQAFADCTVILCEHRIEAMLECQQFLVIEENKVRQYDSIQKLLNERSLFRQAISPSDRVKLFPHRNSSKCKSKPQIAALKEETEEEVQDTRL

Percent Quenching of YFP at 10 μM | SMILES
<15% | NC(=O)c1oc2ccccc2c1NC(=O)c1ccccc1 [Example 85, 3-Benzamidobenzofuran-2-carboxamide]
<15% | NC(=O)c1oc2ccccc2c1-c1nc2ccccc2s1 [Example 50, 3-(Benzo[d]thiazol-2-yl)benzofuran-2-carboxamide]
>20% | CC(=O)Nc1sc2c(c1-c1nc3ccccc3s1)CNC2 [Example 70, 2-Acetamido-3-(benzo[d]thiazol-2-yl)-5,6-dihydro-4H-thieno[2,3-c]pyrrol-5-ium 2,2,2-Trifluoroacetate]

Further lines, the molecule ahead of its results:

SMILES | Percent Quenching of YFP at 10 μM
CCN1CCc2c(sc(NC(=O)C3CC3)c2-c2nc3ccccc3s2)C1 [Example 34, N-(3-(benzo[d]thiazol-2-yl)-6-ethyl-4,5,6,7-tetrahydrothieno[2,3-c]pyridin-2-yl)cyclopropanecarboxamide] | <15%
CCN1CCc2cc(-c3nc4ccccc4s3)c(NC(C)=O)cc2C1.Cl [Example 74, 7-Acetamido-6-(benzo[d]thiazol-2-yl)-2-ethyl-1,2,3,4-tetrahydroisoquinolin-2-ium Chloride] | <15%
CC(=O)Nc1sc2c(c1-c1nc3ccccc3s1)CCN(Cc1ccc(F)cc1)C2 [Example 22] | <15%
